Measurements: the BET-seq Pho4 binding data (Le et al. 2018)
Some of the results follow. These are noisy estimates, calculated here from bound and input reads.

molecular target: T1, Pho4 (S. cerevisiae) (UniProt P07270); assay: relative binding free energy (BET-seq); higher = weaker binding; conditions: reference: library average
T1 sequence: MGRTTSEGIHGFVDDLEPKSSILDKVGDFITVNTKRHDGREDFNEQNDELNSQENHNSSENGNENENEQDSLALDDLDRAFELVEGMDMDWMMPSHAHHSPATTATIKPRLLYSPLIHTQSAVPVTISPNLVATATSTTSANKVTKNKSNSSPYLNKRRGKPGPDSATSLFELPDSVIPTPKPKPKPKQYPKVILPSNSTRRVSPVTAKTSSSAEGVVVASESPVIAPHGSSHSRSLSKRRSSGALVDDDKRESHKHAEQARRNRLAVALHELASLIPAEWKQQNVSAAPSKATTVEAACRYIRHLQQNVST

| Sequence | relative binding free energy |
| --- | --- |
| TGTGACACGTGTTGCT | 0.03 kcal/mol |
| TAGGGCACGTGGATTT | -0.03 kcal/mol |
| TCGGTCACGTGGTCTT | 0.19 kcal/mol |
| TAGACCACGTGTGTTT | -0.02 kcal/mol |
| TCTGGCACGTGTTTGT | -0.1 kcal/mol |
| GAGCTCACGTGGGGCG | 0.33 kcal/mol |
| TTGGCCACGTGGTCGT | -0.11 kcal/mol |
| TTTATCACGTGAGAGA | 0.28 kcal/mol |
| TATAACACGTGGTGCG | -0.06 kcal/mol |
| GTATACACGTGAAGGG | 0.23 kcal/mol |
| GATGTCACGTGTGCGT | 0.06 kcal/mol |
| TGAGGCACGTGTTGCT | 0 kcal/mol |
| GGGGTCACGTGTAGGT | 0.23 kcal/mol |
| AAGCGCACGTGTCGGG | -0.03 kcal/mol |
| TTGAACACGTGATGTG | 0.19 kcal/mol |
| TATGCCACGTGAGGTT | 0.15 kcal/mol |
| TTTAACACGTGTTGAA | 0.01 kcal/mol |
| TCGGACACGTGAAGGG | 0.19 kcal/mol |
| ATGGGCACGTGGATAA | -0.18 kcal/mol |
| TGGTACACGTGTGTCG | 0.08 kcal/mol |
| AGGTTCACGTGTTTCA | 0.32 kcal/mol |
| TCGGGCACGTGTTATA | -0.24 kcal/mol |
| GAATTCACGTGTGGTC | 0.4 kcal/mol |
| GAGGGCACGTGTCTTG | -0.02 kcal/mol |
| TCTTTCACGTGAAGTA | 0.31 kcal/mol |

| Sequence | relative binding free energy |
| --- | --- |
| TGGCTCACGTGGGGAT | 0.1 kcal/mol |
| TGACGCACGTGGTCGG | -0.29 kcal/mol |
| GTGTACACGTGCATTT | 0.05 kcal/mol |
| ACTATCACGTGATGTT | 0.16 kcal/mol |
| TAGAGCACGTGGGGTA | -0.26 kcal/mol |
| CTGACCACGTGGTGGG | -0.24 kcal/mol |
| AGGGGCACGTGTGAGT | -0.05 kcal/mol |
| AGGGACACGTGGAGGA | 0.12 kcal/mol |
| CACTTCACGTGTTTGG | 0.24 kcal/mol |
| CAAGGCACGTGTTAGG | -0.06 kcal/mol |
| AGGAACACGTGTGTTT | 0.05 kcal/mol |
| TCGGTCACGTGGAAGA | 0.32 kcal/mol |
| AAGGGCACGTGGGTAT | -0.22 kcal/mol |
| ATGGTCACGTGGTATA | 0.11 kcal/mol |
| TTAGCCACGTGGTTTT | -0.03 kcal/mol |
| TTGAACACGTGGTCGG | -0.08 kcal/mol |
| GTTGACACGTGTGCAT | 0.02 kcal/mol |
| GGGAGCACGTGGTAAA | -0.04 kcal/mol |
| TAAGACACGTGGGCTT | -0.15 kcal/mol |
| ATTTTCACGTGAGGCT | 0.4 kcal/mol |
| ATGATCACGTGCTGGT | 0.08 kcal/mol |
| GGGATCACGTGTGAGC | 0.39 kcal/mol |
| TTGATCACGTGCGTCG | 0.09 kcal/mol |
| TAAGTCACGTGGTGTA | 0.06 kcal/mol |
| GGTGTCACGTGGGCTA | 0.02 kcal/mol |

| Sequence | relative binding free energy |
| --- | --- |
| AGGGGCACGTGGTTTT | -0.12 kcal/mol |
| GTGGTCACGTGGCAAT | 0.18 kcal/mol |
| GTATACACGTGTTTGA | -0.04 kcal/mol |
| TGTTCCACGTGTGCTG | 0.05 kcal/mol |
| CGTCTCACGTGTGTTA | 0.2 kcal/mol |
| GTCTGCACGTGGGGAG | -0.02 kcal/mol |
| AGGGACACGTGGTAGG | -0.08 kcal/mol |
| CGGGGCACGTGACAGG | -0.05 kcal/mol |
| GGGTACACGTGGGTCG | -0.03 kcal/mol |
| CGATACACGTGAGGGT | 0.26 kcal/mol |
| TTCTTCACGTGTTGTT | 0.14 kcal/mol |
| CTCGTCACGTGTTTGG | 0.12 kcal/mol |
| TAGGGCACGTGGAGGA | -0.16 kcal/mol |
| TGAGCCACGTGGAGGG | -0.04 kcal/mol |
| TTTGACACGTGTCAAT | 0.19 kcal/mol |
| GTCTTCACGTGTTCAT | 0.41 kcal/mol |
| GTGCACACGTGAGGGT | 0.17 kcal/mol |
| TAAGGCACGTGCGATG | 0.01 kcal/mol |
| TTTGACACGTGTTTCT | -0.03 kcal/mol |
| ATAGGCACGTGTGAGC | -0.11 kcal/mol |
| CATTACACGTGGTGCT | 0.08 kcal/mol |
| GTCGTCACGTGGGGCA | 0.03 kcal/mol |
| TAATTCACGTGGAAGT | 0.3 kcal/mol |
| TTGTGCACGTGCGAAG | -0.16 kcal/mol |
| TGTGACACGTGTCGTT | -0.02 kcal/mol |

| Sequence | relative binding free energy |
| --- | --- |
| GGATGCACGTGTTGAT | 0.22 kcal/mol |
| GGGCGCACGTGAGGGA | 0.12 kcal/mol |
| TTCTGCACGTGCGTGG | -0.1 kcal/mol |
| TATTGCACGTGGTACG | -0.14 kcal/mol |
| TGGTCCACGTGTAAAG | 0.14 kcal/mol |
| TATGGCACGTGTGAGT | 0.01 kcal/mol |
| GCTCTCACGTGGGGGT | -0.03 kcal/mol |
| CGGAGCACGTGGTTGG | -0.2 kcal/mol |
| TGTATCACGTGCGAGT | 0.14 kcal/mol |
| ATTGTCACGTGAACTG | 0.37 kcal/mol |
| TTGTCCACGTGCGGTT | -0.06 kcal/mol |
| GCTGGCACGTGTTGGG | 0 kcal/mol |
| TTCAGCACGTGCTGGA | -0.05 kcal/mol |
| ATTGGCACGTGGGGGA | -0.24 kcal/mol |
| AGTTTCACGTGAAGCG | 0.29 kcal/mol |
| GAAGCCACGTGGTGTT | -0.12 kcal/mol |
| AAGTGCACGTGGGCGT | -0.21 kcal/mol |
| GTGGACACGTGGTGTC | 0.09 kcal/mol |
| ATACACACGTGAGGGG | 0.28 kcal/mol |
| TGAGGCACGTGTGTAT | -0.06 kcal/mol |
| AAGGGCACGTGTTAGG | -0.09 kcal/mol |
| GTTCTCACGTGAGGCA | 0.53 kcal/mol |
| GGTGACACGTGTTGTT | 0.12 kcal/mol |
| TAGTTCACGTGGACGG | 0.28 kcal/mol |
| TGTGACACGTGAAGGG | 0.26 kcal/mol |

| Sequence | relative binding free energy |
| --- | --- |
| TAGGGCACGTGGTCAT | -0.31 kcal/mol |
| ATTGGCACGTGAAGAT | -0.05 kcal/mol |
| GTGATCACGTGTAGGA | 0.07 kcal/mol |
| GTTTTCACGTGCGAAT | 0.37 kcal/mol |
| TGGCTCACGTGGTGAT | 0.25 kcal/mol |
| GCGGACACGTGTGGGC | 0.1 kcal/mol |
| GTTTCCACGTGTGGCG | 0.29 kcal/mol |
| GTACGCACGTGATTTA | 0.13 kcal/mol |
| ATGTACACGTGTTGTT | 0 kcal/mol |
| CATTGCACGTGAGGGG | 0.17 kcal/mol |
| AGGATCACGTGTAAAT | 0.26 kcal/mol |
| GGCGTCACGTGTTATA | 0.15 kcal/mol |
| GGCTGCACGTGGAAAG | 0.26 kcal/mol |
| GACATCACGTGGTGGG | 0.27 kcal/mol |
| GAATTCACGTGGAGTA | 0.33 kcal/mol |
| CGGGGCACGTGGAATG | -0.14 kcal/mol |
| GAGCTCACGTGTAGGG | 0.18 kcal/mol |
| TCGGTCACGTGACGTG | 0.13 kcal/mol |
| AAATGCACGTGGCAGG | -0.07 kcal/mol |
| TATAGCACGTGTGTCG | -0.14 kcal/mol |
| ATTTGCACGTGATGAT | 0.13 kcal/mol |
| TTTAGCACGTGACGAG | 0.18 kcal/mol |
| TTTAACACGTGGTCGG | 0 kcal/mol |
| TTCGACACGTGTGGGA | 0.07 kcal/mol |
| TTAAACACGTGGTGTG | -0.08 kcal/mol |

| Sequence | relative binding free energy |
| --- | --- |
| AGGGTCACGTGGCACG | 0.08 kcal/mol |
| TGTTACACGTGTTGTT | 0.06 kcal/mol |
| CGGGGCACGTGGGTTA | -0.15 kcal/mol |
| GTAAGCACGTGTAGAG | -0.09 kcal/mol |
| GCAGTCACGTGTTGTG | 0.16 kcal/mol |
| CGTTACACGTGTTTAG | 0.07 kcal/mol |
| ATTTACACGTGTCTTT | -0.01 kcal/mol |
| GGGATCACGTGGTGCG | 0.25 kcal/mol |
| AGTGGCACGTGTTCGT | -0.1 kcal/mol |
| TACATCACGTGTTAGG | 0.24 kcal/mol |
| GAGAGCACGTGTGAGT | -0.1 kcal/mol |
| TACCTCACGTGATGGG | 0.52 kcal/mol |
| TTATGCACGTGAGATA | 0.15 kcal/mol |
| GTCGTCACGTGTGGGA | 0.2 kcal/mol |
| ACTAGCACGTGTGGTG | -0.18 kcal/mol |
| GTAGCCACGTGGGTGG | -0.19 kcal/mol |
| GAGTCCACGTGGTTAT | 0.28 kcal/mol |
| TTTGTCACGTGTAATT | 0.13 kcal/mol |
| AAAGACACGTGGGTAG | -0.07 kcal/mol |
| CTGGTCACGTGAATTT | 0.2 kcal/mol |
| AGCATCACGTGTTCGT | 0.26 kcal/mol |
